# Inconclusive results, whose numbers are uncertain, are shown with a selection of clear calls. For some assays here: Potencies of inconclusive entries are doubtful fits and often do not repeat. Where a structure was tested more than once in an assay, its records may differ in their call. Activity calls are given as the source filed them. Calls come from the whole dose curve; as a rule, active = well fitted curve in the direction sought with a large enough effect in the repeat runs; inconclusive = weak or mixed curves; inactive = no such curve, though single readings can be large; an effect the other way counts as inactive or inconclusive.
# Tested on: not listed separately
# Test: Caspase-3/7 induction in CHO-K1 cells by small molecules, qHTS cell viability counter screen (AID 1346979); note: nearly all actives have a fitted effect of over 35% in size; note: potency is the fitted concentration of half-maximal effect
# Conditions: CellTiter-Fluor fluorescence, 17 h; activity change, negative = cytotoxicity: at 92.4 µM (top of the series)
# Method in brief: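 To flag cytotoxic compounds, treated CHO-K1 wild-type cells were given CellTiter-Fluor at 16hr and read fluorescently after 1hr at 37C; the caspase-3/7 luminescence was measured in these same wells.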
# % is set by controls: 0 for no effect and ±100 for the full control effect; tags give direction and shape of the fitted curve.
SMILES,Potency,"activity change, negative = cytotoxicity"
Cn1c(=O)c2c(ncn2C)n(C)c1=O,active: 61.9 µM,
CC(C)NC(=O)c1ccc(C=O)cc1,,inactive: 7.46% [at 42.5 µM]
CCCCCCCC/C=C\CCCCCCCCN,,inactive: -0.463% [at 42.5 µM]
Nc1nc(-c2ccc([N+](=O)[O-])cc2)cs1,"inconclusive: 69.3 µM [cytotoxic, single point]",
CC/C=C\CCOC(=O)c1ccccc1O,,inactive: 1.79%
CCCCN(CCCC)CCCCCCN(CCCC)CCCC,,inactive: 0.897%
Cc1ccc(C(=O)O)cc1,,inactive: 7.79%
CC1(C)O[C@@H]2[C@@H](CO[C@@]3(COS(N)(=O)=O)OC(C)(C)O[C@@H]23)O1,"inconclusive: 68.6 µM [cytotoxic, single point]",
CC(=O)OC(C)C,inactive,
Nc1cccc(O)c1,,inactive: -0.258%
C1COCCO1,,inactive: 2.93%
CCNc1cc(O)ccc1C,active: 60.4 µM,
CCCCCCCCS,,inactive: 11.6%
CCCCCCCCCCCC(C)=O,,inactive: 5%
N[C@@H](Cc1cc(I)c(O)c(I)c1)C(=O)O,active: 23.7 µM,
CC(=O)Oc1ccc([N+](=O)[O-])cc1CCl,active: 30.6 µM,
O=C(CN1CCNCC1)NC1CCCCC1,,inactive: 7.33% [at 42.5 µM]
COc1cc(N)c(Cl)cc1C(=O)NC1CCN(Cc2ccccc2)CC1,,inactive: 0.32% [at 42.5 µM]
CCCC(=O)OC,,inactive: 5.42%
C=CC(=O)OCCOC(=O)C=C,"inconclusive: 48.6 µM [cytotoxic, partial curve]",
CCc1ccc(Br)cc1,,inactive: 1.08%
Cc1nc2ccccc2c(=O)o1,,inactive: 9.26%
CCCCCCCCCCC(=O)O,"inconclusive: 69.4 µM [cytotoxic, single point]",
N=C(N)N,,inactive: 1.21% [at 42.5 µM]
CCOC(=O)Oc1ccc(CCNC(=O)[C@H](CCSC)NC(C)=O)cc1OC(=O)OCC,,inactive: 0.997% [at 42.5 µM]
CC(=O)OCCc1ccccc1,,inactive: 2.37%
O=P(O)(O)Oc1ccccc1,"inconclusive: 43.3 µM [rising, partial curve, poor fit]",
C[C@@H]1O[C@@H](OC[C@H]2O[C@@H](Oc3c(-c4ccc(O)c(O)c4)oc4cc(O)cc(O)c4c3=O)[C@H](O)[C@@H](O)[C@@H]2O)[C@H](O)[C@H](O)[C@H]1O,"inconclusive: 54.9 µM [cytotoxic, partial curve]",

# Tested on: not listed separately
# Test: Caspase-3/7 induction in CHO-K1 cells by small molecules, qHTS assay (AID 1346980); note: nearly all actives have a fitted effect of over 15% in size
# Conditions: CHO-K1 caspase-3/7 induction, Caspase-Glo luminescence, 17 h; series mostly up to 92.4 µM; caspase-3/7 activation: at the top concentration
# Method in brief: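 Luminescent Caspase-Glo 3/7 read (30min, room temperature) quantified apoptosis induction. Cells were wild-type CHO-K1, treated with compound for 17hr at 37 C and 5% CO2.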
SMILES,caspase-3/7 activation,Potency
CC(C)NC(=O)c1ccc(C=O)cc1,inactive: -1.96% [at 42.5 µM],
COc1ccc2nc(N)sc2c1,,inactive
O=C1NC(=O)[C@@]2(CCOc3ccc(F)cc32)N1,inactive: 0.139% [at 42.5 µM],
Nc1nc2c(ncn2COCCO)c(=O)[nH]1,inactive: 1.77% [at 42.5 µM],
Cc1cccc(C)c1NC(=O)c1ccc(N)cc1,inactive: -0.0218% [at 42.5 µM],
O=C(O)c1cc(=O)c2ccccc2o1,inactive: 0.0409% [at 42.5 µM],
FC1(F)C(F)(F)C(F)(F)C2(F)C(F)(F)C(F)(F)C(F)(F)C(F)(F)C2(F)C1(F)F (configuration not stated),inactive: -0.587% [at 42.5 µM],

# Tested on: not listed separately
# Test: Caspase-3/7 induction in HepG2 cells by small molecules, qHTS cell viability counter screen (AID 1346981); note: nearly all actives have a fitted effect of over 30% in size; note: potency is the fitted concentration of half-maximal effect
# Conditions: CellTiter-Fluor fluorescence, 17 h; series mostly up to 92.4 µM; activity change, negative = cytotoxicity: at the top concentration
# Method in brief: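 Fluorescence read-out of live-cell protease activity (CellTiter-Fluor) after 1 hr with reagent. This was measured in the same wells as the caspase-3/7 luminescence, on HepG2 cells exposed to DMSO-dissolved compounds for 16 hr at 37 C.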
SMILES,Potency,"activity change, negative = cytotoxicity"
CCCCOCCOCCOC(=O)CCCCC(=O)OCCOCCOCCCC,"inconclusive: 27.3 µM [cytotoxic, single point]",
Nc1nc(-c2ccc([N+](=O)[O-])cc2)cs1,"inconclusive: 69.3 µM [cytotoxic, single point]",
O=C(O)c1cc2ccccc2nc1C(=O)O,,inactive: 3.09%
CCCCCCCCS,,inactive: 5.76%
NC(=O)NC(N)=O,inactive,
CC(=O)Oc1ccc([N+](=O)[O-])cc1CCl,active: 27.3 µM,
C[Si](O[Si](C)(C)C)O[Si](C)(C)C,"inconclusive: 28.6 µM [rising, partial curve, poor fit]",
C[C@@H]1O[C@@H](OC[C@H]2O[C@@H](Oc3c(-c4ccc(O)c(O)c4)oc4cc(O)cc(O)c4c3=O)[C@H](O)[C@@H](O)[C@@H]2O)[C@H](O)[C@H](O)[C@H]1O,"inconclusive: 48.9 µM [cytotoxic, partial curve]",

# Target: Nuclear receptor subfamily 1 group I member 2 (Homo sapiens) (UniProt O75469)
# Sequence of UniProt O75469 (O75469 whole entry, looked up): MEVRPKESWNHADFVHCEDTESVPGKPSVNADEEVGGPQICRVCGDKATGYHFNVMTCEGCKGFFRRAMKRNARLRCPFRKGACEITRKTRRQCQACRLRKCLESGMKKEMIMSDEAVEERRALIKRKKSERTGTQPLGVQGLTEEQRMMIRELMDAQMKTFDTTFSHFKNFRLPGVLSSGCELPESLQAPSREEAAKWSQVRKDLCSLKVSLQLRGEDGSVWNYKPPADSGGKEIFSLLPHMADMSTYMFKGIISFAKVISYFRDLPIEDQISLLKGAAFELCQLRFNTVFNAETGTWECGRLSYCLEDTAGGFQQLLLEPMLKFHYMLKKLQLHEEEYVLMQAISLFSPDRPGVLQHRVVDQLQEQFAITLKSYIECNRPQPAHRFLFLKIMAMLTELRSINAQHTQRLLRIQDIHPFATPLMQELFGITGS
# Test: Human pregnane X receptor (PXR) small molecule agonists, qHTS assay (AID 1346982); note: nearly all actives have a fitted effect of over 35% in size; note: potency is the fitted concentration of half-maximal effect
# Conditions: PXR-Luc HepG2, CYP3A4 luciferase reporter, 24 h; series mostly up to 92.4 µM; activation: at the top concentration
# Method in brief: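 HepG2 PXR-Luc reporter line, 5% charcoal-stripped FBS; 5 hr pre-incubation, compound (DMSO) 24 hr at 37 C/5% CO2; ONE-Glo 30 min RT; luminescence read-out.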
SMILES,activation,Potency
CC(C)NC(=O)c1ccc(C=O)cc1,inactive: 23.3% [at 42.5 µM],
CCCCCCCC/C=C\CCCCCCCCN,inactive: 8.11% [at 42.5 µM],
CC/C=C\CCOC(=O)c1ccccc1O,,"inconclusive: 27.3 µM [activator, single point]"
CC1(C)O[C@@H]2[C@@H](CO[C@@]3(COS(N)(=O)=O)OC(C)(C)O[C@@H]23)O1,,"inconclusive: 30.6 µM [activator, partial curve]"
O=C(CN1CCNCC1)NC1CCCCC1,inactive: -2.25% [at 42.5 µM],
O=C(O)c1cc(=O)c2ccccc2o1,inactive: -0.889% [at 42.5 µM],
C=CC(=O)OCCOC(=O)C=C,inactive: -1.08%,
CCc1ccc(Br)cc1,inactive: 3.45%,
CCCCCCCCCCC(=O)O,,"inconclusive: 49.2 µM [activator, partial curve, poor fit]"

# Target: Cytochrome P450 2D6 (Homo sapiens) (UniProt P10635)
# Sequence of UniProt P10635 (P10635 whole entry, looked up): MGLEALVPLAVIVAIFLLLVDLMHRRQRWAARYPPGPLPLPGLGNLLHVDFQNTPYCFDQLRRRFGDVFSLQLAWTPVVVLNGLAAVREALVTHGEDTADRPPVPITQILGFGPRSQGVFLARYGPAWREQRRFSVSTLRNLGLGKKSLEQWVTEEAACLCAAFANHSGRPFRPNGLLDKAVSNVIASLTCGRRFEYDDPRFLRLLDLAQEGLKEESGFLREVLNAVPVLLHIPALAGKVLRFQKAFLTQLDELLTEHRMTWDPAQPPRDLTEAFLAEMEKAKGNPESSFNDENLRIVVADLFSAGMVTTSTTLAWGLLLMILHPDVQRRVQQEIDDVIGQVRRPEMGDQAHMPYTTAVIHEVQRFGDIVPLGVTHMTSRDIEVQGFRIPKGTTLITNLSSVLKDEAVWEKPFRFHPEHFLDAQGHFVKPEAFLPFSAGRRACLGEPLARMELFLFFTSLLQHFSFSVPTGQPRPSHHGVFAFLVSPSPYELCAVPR
# Test: Cytochrome P450 Family 2 Subfamily D Member 6 (CYP2D6) small molecule antagonists: luciferase reporter qHTS assay (AID 1671196); note: nearly all actives have a fitted effect of over 50% in size; note: potency is the fitted concentration of half-maximal effect
# Conditions: P450-Glo CYP2D6 enzyme assay, luciferin luminescence, 1 h; series mostly up to 115 µM; activity change, negative = inhibition: at the top concentration
# Method in brief: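 Luminogenic proluciferin substrate, CYP2D6 enzyme; 10 min RT preincubation with compound, NADPH regeneration system added, 1 h RT. Stop/detection reagent, 20 min RT, luminescence read (RLU). Signal proportional to CYP activity.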
SMILES,"activity change, negative = inhibition",Potency
Nc1nc(-c2ccc([N+](=O)[O-])cc2)cs1,inactive: -16.8%,
CC1(C)O[C@@H]2[C@@H](CO[C@@]3(COS(N)(=O)=O)OC(C)(C)O[C@@H]23)O1,,"inconclusive: 63.3 µM [inhibitor, partial curve]"
CC(=O)OC(C)C,,"inconclusive: 61.5 µM [inhibitor, partial curve, poor fit]"
Nc1cccc(O)c1,,"inconclusive: 65.2 µM [inhibitor, partial curve]"
CCNc1cc(O)ccc1C,,active: 39.5 µM
N[C@@H](Cc1cc(I)c(O)c(I)c1)C(=O)O,inactive: -8.99% [at 53 µM],
Nc1nc2c(ncn2COCCO)c(=O)[nH]1,,"inconclusive: 34.7 µM [inhibitor, partial curve, poor fit]"
Cc1nc2ccccc2c(=O)o1,,"inconclusive: 56.7 µM [inhibitor, partial curve, poor fit]"
CC(=O)OCCc1ccccc1,inactive: -1.49%,
O=P(O)(O)Oc1ccccc1,,"inconclusive: 63.3 µM [inhibitor, partial curve, poor fit]"
